First the molecules themselves.
B1: SEQ ID NO 17 (designed binder)
chain: MQIFVKTLTEYSYMYGKTITLEVEPSDTIENVKAKIQDKEGIPPDQQRLIWAGKQLEDGRTLSDYNIQNPDILHLVLRLRAA
B2: SEQ ID NO 43 (designed binder)
chain: B1 chain with E10D, Y11R, S12D, Y13M, M14Y, Y15Q, Q68R
B3: Affilin 139829 (designed binder)
chain: B1 chain with E10P, Y11E, S12Q, Y13H, T18I, Q68R, N69H
B4: SEQ ID NO 32 (designed binder)
chain: B1 chain with E10D, Y11D, S12K, Y13G, M14Y, Y15D
B5: SEQ ID NO 23 (designed binder)
chain: B1 chain with Y11P, S12T, Y13M, M14Q, Y15H
B6: SEQ ID NO 22 (designed binder)
chain: B1 chain with E10M, Y11E, S12N, M14W, Y15G
B7: SEQ ID NO 45 (designed binder)
chain: B1 chain with E10D, Y11Q, S12P, Y13D, M14W, Q68R
B8: SEQ ID NO 44 (designed binder)
chain: B1 chain with E10S, Y11D, S12Y, Y15N, Q68R
B9: SEQ ID NO 46 (designed binder)
chain: B1 chain with E10A, Y11G, S12D, M14Y, Y15N, Q68R
B10: SEQ ID NO 8 (designed binder)
chain: B1 chain with S12E, Y13P, M14E, Y15W, Q68G, N69E
B11: SEQ ID NO 18 (designed binder)
chain: B1 chain with Y11Q, S12D, Y13D, M14Y, Y15H
B12: Affilin 139817 (designed binder)
chain: B1 chain with Y11A, S12M, Y13G, M14W, Y15D, P44L
B13: SEQ ID NO 14 (designed binder)
chain: B1 chain with Y11S, S12E, Y13R, M14W, N69H
B14: SEQ ID NO 12 (designed binder)
chain: B1 chain with E10M, Y11E, S12Q, Y13A, M14G, N69A
B15: SEQ ID NO 21 (designed binder)
chain: B1 chain with E10P, Y11P, Y13M, M14N, Y15W
B16: SEQ ID NO 27 (designed binder)
chain: B1 chain with E10P, Y11Q, S12D, Y13M, M14H, Y15Q
B17: Affilin 142232 (designed binder)
chain: B1 chain with E10W, Y11D, S12P, M14Q, P44S
notes: Ubiquitin mutein with PDI motif and one further substitution in position 38
B18: SEQ ID NO 35 (designed binder)
chain: B1 chain with E10Q, Y11E, S12T, M14Y, Q68R, N69H
B19: SEQ ID NO 10 (designed binder)
chain: B1 chain with E10P, Y11W, S12R, Y13G, M14Y, Y15D, Q68I, N69H, P70A
B20: SEQ ID NO 11 (designed binder)
chain: B1 chain with Y11E, S12D, M14Y, Y15N, Q68H, N69H
B21: SEQ ID NO 16 (designed binder)
chain: B1 chain with Y11G, S12D, Y13Q, M14W, N69H
B22: SEQ ID NO 42 (designed binder)
chain: B1 chain with E10Q, Y11M, Y13D, Y15R, Q68R
B23: SEQ ID NO 38 (designed binder)
chain: B1 chain with Y11Q, Y13Q, M14Y, Y15G, Q68R, N69H
B24: SEQ ID NO 41 (designed binder)
chain: B1 chain with E10A, Y11P, S12Q, Y13D, Q68R
B25: SEQ ID NO 47 (designed binder)
chain: B1 chain with E10P, S12E, Y13Q, M14G, Q68R
B26: SEQ ID NO 37 (designed binder)
chain: B1 chain with S12Q, Y13A, M14P, Y15N, Q68R, N69H
B27: Affilin 139756 (designed binder)
chain: B1 chain with E10T, Y11W, S12E, Y13P, M14E, Q68S, N69A
notes: Ubiquitin mutein with PDI motif
B28: SEQ ID NO 52 (designed binder)
chain: B1 chain with E10G, Y11G, S12D, Y13H, M14G, Q68V
B29: Affilin 139826 (designed binder)
chain: B1 chain with Y11H, S12D, Y13A, M14Y, Y15G, Q68T, N69H, R80C
B30: SEQ ID NO 36 (designed binder)
chain: B1 chain with E10Q, Y11Q, Y13E, M14Y, Y15S, Q68R, N69H
B31: SEQ ID NO 9 (designed binder)
chain: B1 chain with Y11S, S12D, Y13W, M14Y, Y15T, Q68G, N69H
B32: SEQ ID NO 30 (designed binder)
chain: B1 chain with E10P, Y11Q, S12D, Y13M, M14H, Y15Q
B33: SEQ ID NO 24 (designed binder)
chain: B1 chain with Y11P, S12D, Y13R, M14Q
B34: SEQ ID NO 19 (designed binder)
chain: B1 chain with Y11Q, S12D, Y13G, M14Y, Y15H
B35: SEQ ID NO 40 (designed binder)
chain: B1 chain with E10Q, Y11S, S12D, Y13P, M14H, Q68R
B36: SEQ ID NO 13 (designed binder)
chain: B1 chain with S12E, Y13P, M14E, N69H
B37: Affilin 139808 (designed binder)
chain: B1 chain with V5L, E10Q, Y13E, M14D, Y15G, T18I, N69Q
B38: SEQ ID NO 48 (designed binder)
chain: B1 chain with Y11H, S12E, Y13K, M14W, Y15A, Q68R
B39: SEQ ID NO 15 (designed binder)
chain: B1 chain with E10D, Y11H, S12E, Y13M, M14N, N69H
B40: SEQ ID NO 20 (designed binder)
chain: B1 chain with E10Q, Y11D, S12P, M14R
B41: SEQ ID NO 31 (designed binder)
chain: B1 chain with E10Q, Y11W, S12E, Y13E, M14Y, Y15S
B42: SEQ ID NO 28 (designed binder)
chain: B1 chain with E10P, Y11N, S12M, Y13E, M14Y, Y15H
B43: SEQ ID NO 26 (designed binder)
chain: B1 chain with E10Y, Y11P, S12Q, Y13R, M14E
B44: 139864 (designed binder)
Affilin of two ubiquitin moieties: MQIFVHTPTGKTITLEVEPSDTIENVKAKIQDKEGIPPDQQRLIWAGKQLEDGRTLSDYNIRNPDILHLVLRLRAAGIGMQIFVHTMTGKTITLEVEPSDTIENVKAKIQDKEGIPPDQQRLIWAGKQLEDGRTLSDYNIGAGTMLHLVLRLRAA
notes: also called Affilin 139864; clone 139864
B45: 140094 (designed binder)
Affilin of two ubiquitin moieties: B44 Affilin of two ubiquitin moieties with P8Q, R62T, N63S, H85I, M87S, G141P, A142R, G143A, T144A, M145S
notes: also called Affilin 140094
B46: 139901 (designed binder)
Affilin of two ubiquitin moieties: B44 Affilin of two ubiquitin moieties with P8D, N63H, H85N, M87F, G141Y, A142N, T144M, M145F
notes: also called Affilin 139901
B47: 139959 (designed binder)
Affilin of two ubiquitin moieties: B44 Affilin of two ubiquitin moieties with P8M, H85V, M87F, G141T, A142Q, G143W, M145P
notes: also called Affilin 139959
B48: Affilin 139989 (designed binder)
chain: MQIFVVTMTGKTITLEVEPSDTIENVKAKIQDKEGIPPDQQRLIWAGKQLEDGRTLSDYNIEWYTNLHLVLRLRAAGIGMQIFVWTTTGKTITLEVEPSDTIENVKAKIQDKEGIPPDQQRLIWAGKQLEDGRTLSDYNILHGQWLHLVLRLRAA
notes: Affilin of two ubiquitin moieties, without PDI motif
B49: 139923 (designed binder)
Affilin of two ubiquitin moieties: MQISLYTPTGKTLTLELEPSDTIENVKAKIQDKEGIPPDQQRLIWAGKQLEDGRTLSDYNIRHPDILHLVLRLRAAGIGMQIFVDTYTGKTITLEVEPSDTIENVKAKIQDKEGIPPDQQRLIWAGKQLEDGRTLSDYNIGYEPALHLLLRLRAA
notes: additional exchanges printed: F4S,V5L,I13L,V17L,2. moiety: V70L; also called Affilin 139923
B50: 139961 (designed binder)
Affilin of two ubiquitin moieties: B44 Affilin of two ubiquitin moieties with P8T, N63H, H85S, M87F, G141V, G143H, T144N
notes: also called Affilin 139961
B51: 139880 (designed binder)
Affilin of two ubiquitin moieties: B44 Affilin of two ubiquitin moieties with P8W, N63H, H85R, M87P, G141H, A142R, G143S, T144A
notes: also called Affilin 139880
B52: 140077 (designed binder)
Affilin of two ubiquitin moieties: B44 Affilin of two ubiquitin moieties with P8Y, N63H, M87N, G143R, M145S
notes: also called Affilin 140077
B53: 139907 (designed binder)
Affilin of two ubiquitin moieties: B44 Affilin of two ubiquitin moieties with P8W, R62S, N63H, H85V, M87T, G141A, A142N, G143R, T144A, M145R
notes: also called Affilin 139907

Residue numbers refer to the chain shown, from its start. Numbers in names are those of the source.

The first assay addresses T1, Recombinant human EGFR-Fc Chimera (R&D Systems, catalog no. 344-ER-050) (human, UniProt P00533 25-645).
T1 construct: range 1-645; Bought reagent; Immobilised on the CM5 chip for SPR; also called hEGFR-Fc; not shown: Fc region of human IgG1, fused at the C-terminus
Kind of assay: SPR (Biacore) on immobilised hEGFR-Fc. (Surface plasmon resonance follows binding to a sensor surface in real time, without labels.)
In general, Kd refers to the equilibrium constant for the complex coming apart. For B1, the Kd is 2 nM. Take B2: the Kd worked out at 106 nM. Turning to B3, the Kd was found to be 60 nM. In the case of B4, the Kd came to 703 nM. Take B5: the Kd worked out at 90 nM. As to B6, the Kd turned out to be 86 nM. For B7, the Kd was determined as 140 nM.

For B8, the Kd was 126 nM. On the same count and under the same terms, the result for B9 reads 176 nM. Same read-out and setting: as for B10, the figure is 150 nM.

As for B11, the Kd was 19 nM.

With B12, the Kd was found to be 130 nM. As for B13, the Kd came out at 184 nM. As for B14, the Kd was found to be 61 nM. As for B15, the Kd was 80 nM. Still for that read-out and setting: the result for B16 reads 160 nM. Still for that read-out and setting: the result for B17 reads 169 nM; that for B18, 64 nM; that for B19, 537 nM. Take B20: the Kd worked out at 550 nM. Still for that read-out and setting: the result for B21 reads 274 nM; that for B22, 100 nM. Same read-out and setting: as for B23, the figure is 180 nM; as for B24, 70 nM. The same measure, in the same setting: as for B25, the figure is 240 nM; as for B26, 100 nM.

B27: the Kd turned out to be 66 nM. The same measure, in the same setting: the result for B28 reads 9 nM; that for B29, 110 nM. Still for that read-out and setting: as for B30, the figure is 91 nM; as for B31, 220 nM. Same read-out and setting: as for B32, the figure is 174 nM; as for B33, 127 nM. Consider B34, for which the Kd turned out to be 33 nM. Same read-out and setting: as for B35, the figure is 48 nM; as for B36, 0.97 nM; as for B37, 133 nM. On the same count and under the same terms, as for B38, the figure is 244 nM; as for B39, 243 nM; as for B40, 57 nM. Regarding B41, the Kd was 413 nM.

As for B42, the Kd was determined as 162 nM. On the same count and under the same terms, as for B43, the figure is 143 nM; as for B44, 536 nM; as for B45, 650 nM. For B46, the Kd was found to be 61 nM. With B47, the Kd was found to be 566 nM.

The target in a further assay is T1, Recombinant human EGFR-Fc Chimera (R&D …). Nature of the assay: SPR (Biacore) on immobilised hEGFR-Fc. The source holds these as a separate data set.
As for B48, the Kd is 61 nM.

Consider B49, for which the Kd was 532 nM. On the same count and under the same terms, the result for B50 reads 450 nM; that for B51, 574 nM. On to B52, for which the Kd is 660 nM. Regarding B53, the Kd worked out at 473 nM.

For the origin of these results see patent US20180030098A1 (NAVIGO PROTEINS, published 2018).
